Results from PMC10726135.
The list shows a part of the results. At the low end of the ranking the order means little. The protein was read in a cell extract, so binding may be indirect.

Target: T1, HNF4alpha8 (COS-7 nuclear extract) (UniProt P41235-5)
T1 sequence: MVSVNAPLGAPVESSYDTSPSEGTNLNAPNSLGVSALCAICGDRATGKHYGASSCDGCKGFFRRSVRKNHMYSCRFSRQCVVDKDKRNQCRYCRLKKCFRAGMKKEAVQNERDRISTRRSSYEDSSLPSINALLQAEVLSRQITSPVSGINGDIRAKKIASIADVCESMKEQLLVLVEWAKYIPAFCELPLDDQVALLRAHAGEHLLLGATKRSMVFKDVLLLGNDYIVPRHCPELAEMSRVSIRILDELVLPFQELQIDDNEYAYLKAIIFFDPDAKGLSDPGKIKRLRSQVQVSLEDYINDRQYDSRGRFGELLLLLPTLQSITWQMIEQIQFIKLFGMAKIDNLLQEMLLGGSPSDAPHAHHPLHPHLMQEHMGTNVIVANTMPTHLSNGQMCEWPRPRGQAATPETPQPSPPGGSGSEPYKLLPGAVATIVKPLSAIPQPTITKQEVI
Test: protein-binding microarray
Settings: COS-7 nuclear extract on double-stranded Agilent 4x180k PBM; binding buffer, salt, pH and temperature not given; high values mean tight binding; double strand, one strand shown; sequences stand for … in …GCCTAGGGAGATTAGAGTATCGGTCGA

| Sequence | binding signal (log2 normalized intensity) |
| --- | --- |
| GGCTTGCAAGACTGCATTCCCTAGATGTCG | -1.11 |
| TACCTATGCCTTGTCTAGTTAAGTGTTCAG | 1.93 |
| ACAACCTTCTGAGATGGAGCATGATGAAAT | -0.174 |
| TTTAAGAGCTCTGTGTCAAAAATCAGGGAC | -0.619 |
| CTTTCAAACAAAAGCTGCTTCTGTAAAACT | -1.27 |
| AGAGATAAGGTCTTCTACAGTCCAAAGGGC | 6.2 |
| ACTCAAAGAAAAGTTATGTTGGGCAACTAC | -0.931 |
| CAGCCACTTTTAAAAGGTAACATCAAAGCC | -1.12 |
| GCAAGGATGGGGGCAAAGGTTGACACCTAG | 4.83 |
| GGGGTTAACGTCCAAAGGTAATGGTCTCTC | 2.47 |
| AGGGTCAGTTTGAAATTAGGCAATATGAGT | 0.852 |
| TACCTCTGATCACTACAAGCTTTGAAGGCA | -1.34 |
| AGCGGAAAGAAAGGCCTTTCATACGTTTAA | -1.16 |
| GAATCAAAGGTCAGGAATCGCATTGCAAAA | 2.02 |
| CTCTTTTCTTTGTACCGTATTTCAGACCAC | 1.6 |
| ACTGGTGGTTTCACAATTAAGCCAAACTTG | -1.47 |
| TTTACTGAGACTTAACAGTCACTCATGAGC | -0.758 |
| GTCAGATGGCCAAAGTCAACATTGATGGGG | 0.929 |
| GAGTGACCTGGTATTGCAAGTATTTCACCC | 1.59 |
| TCAGGAGTGATGCCAGAAGATTAGTGATGG | -0.853 |

| Sequence | binding signal (log2 normalized intensity) |
| --- | --- |
| CTCCAGATCAAAGGTCAAACAGTGCACTGA | 5.96 |
| TGCAAGACCTCAGCCCTCAGGGGCCTTCAG | -1.08 |
| CACTGTGCTCTGAAAAGTGAACTGTCTGCT | 0.223 |
| TCTGAATAGAACTCAGGAAAGATCAGCTGA | -1.12 |
| AGAGTTCCTGACAATTGGCCAAAGTTCAGT | 4.64 |
| CAGCAGATAAGGGCAGAGAGGCTGCCATCC | -1.41 |
| GCCTGTTCACATTCCAGTGTTTCAAAGGAG | -0.17 |
| ACTTTGAGGTGTTCTCTGGGGTTAGCCAAA | 1.38 |
| TCCAGTGGACATTGGCCCTTTGACCTTTAA | 8.05 |
| TCTTATCAGCCATCTCCCCAGGGAGGCCTG | -1 |
| GCCCCCAGAGGTTCTAGCCCTGGTGAGTCA | 2.04 |
| CTTTAGGACTTTGAACCTTGGGTCTGTAAT | 6.82 |
| AAATTCCAACAGTTGAGAATTCCAGAGATG | -0.705 |
| TATAGTCACTATACAACTAGGCTACATGAT | -1.28 |
| CTGCAGGGTAGGCAGACAGGTTGGAGACGC | -1.22 |
| CCTTGCATCAGAATCTGGACAGTGTAAGAT | 0.241 |
| TCATCTGGGCTTTAGGTTTGGTGTTTAATT | 1.71 |
| TGCGTGTACTAAGGTCTTAAGTGTCATTAG | 1.59 |
| AATCTTGATAGTAGAGCTTATCAAGGCAAC | -1.26 |
| TTTTTTTTTTTTTTTGAGATGGAATCTTGC | 1.36 |
